The whole screen tested about 220,000 compounds, of which about 5,700 (2.6%) were called active. The shares of active, inactive and inconclusive entries below differ from those in the screen. The call rests on the fitted dose curve; in most records, active means well fitted inhibition curve with a large enough effect; inconclusive means small, poorly fitted or top-dose-only effect; inactive means no such curve, though single readings can be large or run the other way. Where the call is inconclusive, the potency comes from a doubtful curve fit.
These compounds were tested against Lysine-specific demethylase 5B (Homo sapiens) (UniProt Q9UGL1) (assay: Primary screen for KDM5B Histone Demethylases FDH-coupled qHTS). Conditions: FDH-coupled NADH fluorescence (FDH is formaldehyde dehydrogenase); activity change, negative = inhibition: at 57.7 µM (top of the series) unless noted.
Sequence of UniProt Q9UGL1 (Q9UGL1 whole entry, looked up): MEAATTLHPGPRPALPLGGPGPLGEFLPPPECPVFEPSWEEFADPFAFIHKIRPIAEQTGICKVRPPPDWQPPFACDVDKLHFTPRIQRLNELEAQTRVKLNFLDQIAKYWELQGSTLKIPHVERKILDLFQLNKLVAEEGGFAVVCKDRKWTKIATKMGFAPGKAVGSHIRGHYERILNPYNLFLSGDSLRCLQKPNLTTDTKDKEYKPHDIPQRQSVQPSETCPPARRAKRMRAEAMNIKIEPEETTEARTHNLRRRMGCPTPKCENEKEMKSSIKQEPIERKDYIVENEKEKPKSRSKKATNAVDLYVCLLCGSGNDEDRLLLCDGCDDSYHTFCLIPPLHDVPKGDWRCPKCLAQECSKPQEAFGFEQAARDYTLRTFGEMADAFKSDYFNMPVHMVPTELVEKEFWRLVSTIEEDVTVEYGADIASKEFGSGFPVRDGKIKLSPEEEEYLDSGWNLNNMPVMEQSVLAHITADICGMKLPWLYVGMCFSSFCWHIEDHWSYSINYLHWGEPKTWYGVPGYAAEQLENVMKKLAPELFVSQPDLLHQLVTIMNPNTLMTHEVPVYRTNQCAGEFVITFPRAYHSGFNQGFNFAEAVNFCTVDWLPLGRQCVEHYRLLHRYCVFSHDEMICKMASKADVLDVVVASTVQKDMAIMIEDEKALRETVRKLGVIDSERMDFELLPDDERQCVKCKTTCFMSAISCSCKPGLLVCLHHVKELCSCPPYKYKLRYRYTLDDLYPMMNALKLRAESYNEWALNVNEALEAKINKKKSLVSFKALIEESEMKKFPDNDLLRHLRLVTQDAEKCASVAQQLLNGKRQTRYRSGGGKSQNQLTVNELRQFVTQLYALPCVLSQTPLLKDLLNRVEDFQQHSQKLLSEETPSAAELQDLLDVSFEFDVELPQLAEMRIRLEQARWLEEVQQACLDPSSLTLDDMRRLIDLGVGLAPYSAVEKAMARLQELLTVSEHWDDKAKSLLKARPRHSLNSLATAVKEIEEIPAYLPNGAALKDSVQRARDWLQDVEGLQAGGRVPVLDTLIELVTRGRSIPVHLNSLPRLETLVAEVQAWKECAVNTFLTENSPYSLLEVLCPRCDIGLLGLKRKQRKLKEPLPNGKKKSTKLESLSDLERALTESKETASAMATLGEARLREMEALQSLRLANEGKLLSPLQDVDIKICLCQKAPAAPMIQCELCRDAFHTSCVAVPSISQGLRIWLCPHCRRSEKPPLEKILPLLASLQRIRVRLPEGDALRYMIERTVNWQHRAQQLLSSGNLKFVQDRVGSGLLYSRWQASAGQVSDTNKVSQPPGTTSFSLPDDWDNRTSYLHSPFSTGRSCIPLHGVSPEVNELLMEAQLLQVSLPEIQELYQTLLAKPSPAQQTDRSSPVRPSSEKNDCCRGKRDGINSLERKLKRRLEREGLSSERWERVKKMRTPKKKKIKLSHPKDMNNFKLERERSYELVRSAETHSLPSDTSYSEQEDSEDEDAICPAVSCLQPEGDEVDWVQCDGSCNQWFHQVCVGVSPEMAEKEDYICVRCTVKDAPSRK
Method in brief: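 Here, H3K4me3 peptide (12.5 µM in substrate mix) is demethylated by KDM5BΔAP, 200 nM final, after 10 min compound exposure. Formaldehyde product is coupled through FDH (0.25 U/mL in mix) to NADH fluorescence; 30-min ΔRFU feeds dose-response curves.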
Further: nearly all actives have a fitted effect of over 70% in size.
Potency means the concentration at half of the fitted maximal effect; tags describe the fitted curve by direction and shape.
Wherever activity change, negative = inhibition is given: 0% is about no effect.

`Cc1cccc(C(=O)N2CCCC(c3nc4ccccc4[nH]3)C2)c1` (stereo unspecified) was tested. Which “activity change, negative = inhibition” value did it give?
Its value is inactive: 17.9%.

Which Potency does the source give for `CSCC[C@H](NC(=O)c1cc2c([nH]c3ccccc32)c(-c2ccccc2)n1)C(=O)O` here?
Its Potency is inconclusive: 28.2 µM [inhibitor, partial curve, poor fit].

For `CN1CC2(CCCN(Cc3cc4ccccc4n(C)c3=O)C2)OC1=O` (stereo unspecified), which Potency is on record?
The Potency was active: 22.4 µM.

With `CCCOC(=O)C1=C(C)NC2=C(C(=O)CCC2)C1c1cccc(O)c1` (stereo unspecified) as the compound, how does the Potency read?
The Potency was inconclusive: 28.2 µM [inhibitor, partial curve, poor fit].

With `CCc1noc(-c2cccn3c(CNC(=O)c4cc5ccccc5[nH]4)nnc23)n1` as the compound, how does the Potency read?
The Potency was inconclusive: 14.1 µM [inhibitor, partial curve].

With `O=C(Nc1nnc2n1CCS2)c1ccc(F)cc1F` as the compound, how does the Potency read?
Its Potency is inconclusive: 17.8 µM [inhibitor, partial curve, poor fit].

With `CC(C)CCNC(=O)CCc1nnc2n(CCCOC(C)C)c(=O)c3ccccc3n12` as the compound, how does the Potency read?
The Potency was inconclusive: 39.8 µM [inhibitor, single point].

How did the Potency turn out when `O=C(O)c1ccccc1NCc1cccnc1` was run?
The Potency was inconclusive: 20 µM [inhibitor, partial curve, poor fit].

For `CCOC(=O)c1ccc(NC(=O)c2cc3sccc3n2Cc2ccc(Cl)cc2)cc1`, which Potency is on record?
The Potency was inconclusive: 28.2 µM [inhibitor, partial curve, poor fit].

`Cc1ccc(-c2cc3c(=O)n(CCNC(=O)c4cc(F)ccc4F)ccn3n2)c(C)c1` was tested. Which “activity change, negative = inhibition” value did it give?
Its value is inactive: -26%.

Which “activity change, negative = inhibition” value does the source give for `Cn1ccc2c(C(=O)Nc3ccc(C(N)=O)cc3)cccc21` here?
The value was inactive: 68.4%.

`Cc1nc(C23CC4CC(CC(C4)C2)C3)c(C)o1` was tested. Which “activity change, negative = inhibition” value did it give?
Its value is inactive: 23.5%.

`Cc1cc(C(=O)N[C@@H]2CN(c3ncccn3)C[C@H]2CO)n(C)n1` was tested. Which Potency did it give?
Its Potency is inconclusive: 31.6 µM [inhibitor, partial curve, poor fit].

Which “activity change, negative = inhibition” value does the source give for `CCc1ccc(NC(=O)C(C)C2CCOCC2)cc1` (stereo unspecified) here?
The value was inactive: 0.741%.

`COc1cc(OC)c(OC)cc1CN1CCCC(C(=O)N2CCCCCC2)C1` (stereo unspecified) was tested. Which “activity change, negative = inhibition” value did it give?
Its value is inactive: -16.7%.

Which “activity change, negative = inhibition” value does the source give for `COc1cc(C#N)ccc1OC(C)C(=O)c1ccc(F)cc1` (stereo unspecified) here?
The value was inactive: 23.7%.

`Cc1ccnc(NC(=O)c2cc3c(=O)oc4ccc(C)cc4c3s2)c1` was tested. Which Potency did it give?
The Potency was inconclusive: 25.1 µM [inhibitor, partial curve, poor fit].

For `Cc1nccnc1N1CCC(N2CCCC(C(=O)NCCc3ccccc3)C2)CC1` (stereo unspecified), which Potency is on record?
Its Potency is inconclusive: 17.8 µM [inhibitor, single point].

How did the “activity change, negative = inhibition” value turn out when `CCCOc1ccc(-c2nc(C#N)c(N3CCN(C(=O)c4cccs4)CC3)o2)cc1` was run?
Its value is inactive: -28%.

For `C=CCOC(=O)C1=C(C)N=C2SC=C(CC(=O)N3CCOCC3)N2C1c1ccc(C)cc1C` (stereo unspecified), which Potency is on record?
The Potency was inconclusive: 14.1 µM [inhibitor, partial curve].

How did the Potency turn out when `COCCNc1ncnc2c1[nH]c1ccccc12` was run?
The Potency was inconclusive: 28.2 µM [inhibitor, partial curve, poor fit].

With `CCNC(=O)O[C@@H]1CO[C@H]2[C@@H]1OC[C@@H]2Nc1nccc(-c2cccs2)n1` as the compound, how does the Potency read?
The Potency was active: 28.2 µM.

With `Cc1ccc(N(C(C)C(=O)Nc2ccc(C)c(Cl)c2)S(C)(=O)=O)cc1C` (stereo unspecified) as the compound, how does the “activity change, negative = inhibition” value read?
The value was inactive: -6.48%.

For `O=C(Nc1cccc(C(F)(F)F)c1)O[C@@H]1CO[C@H]2[C@@H]1OC[C@@H]2n1cc(-c2ccccn2)nn1`, which “activity change, negative = inhibition” value is on record?
The value was inactive: 18.8%.

How did the Potency turn out when `Cc1ccccc1-n1nc(-c2c(C)nc3c(OCC(=O)OC(C)(C)C)cccn3c2=O)cc1C` was run?
The Potency was active: 20 µM.

How did the “activity change, negative = inhibition” value turn out when `Nc1ccc(Br)cc1-c1ccccc1` was run?
The value was inactive: 17.6%.

For `Cc1cnc(CCNC(=O)Cc2cccc(F)c2)n1Cc1ccc(F)cc1`, which “activity change, negative = inhibition” value is on record?
The value was inactive: 4.94%.

`CCCCc1ccc(NC(=O)Cn2ccn3nc(-c4ccc(F)cc4)c(CO)c3c2=O)cc1` was tested. Which Potency did it give?
The Potency was inconclusive: 20 µM [inhibitor, single point].

`O=C(Nc1nnc2n1CCS2)c1ccccc1C(F)(F)F` was tested. Which Potency did it give?
Its Potency is inconclusive: 3.16 µM [inhibitor, partial curve, poor fit].

With `Cc1ccccc1CC(=O)N1CC(C(=O)NC2CCCCC2)C2(CCOCC2)C1` (stereo unspecified) as the compound, how does the “activity change, negative = inhibition” value read?
The value was inactive: -12.7%.

How did the “activity change, negative = inhibition” value turn out when `Cc1ccc2c(c1)nc1n2[C@@H](CNCc2ccccc2)COC1` was run?
Its value is inactive: -24.8% [at 86.2 µM].

With `COc1ccc(Nc2oc(-c3ccccc3Cl)nc2C#N)cc1` as the compound, how does the Potency read?
Its Potency is inconclusive: 28.2 µM [inhibitor, partial curve, poor fit].

For `CCc1ccccc1NC(=O)c1ccc2nc(C(C)C)oc2c1`, which “activity change, negative = inhibition” value is on record?
The value was inactive: -13.9%.

For `COc1ncccc1-c1nc(-c2c(C)noc2C)cc2cc(CN(C)C)oc12`, which Potency is on record?
Its Potency is inconclusive: 31.6 µM [inhibitor, single point].

Which Potency does the source give for `CN1c2cc(C(=O)Nc3ccc(OC(F)(F)F)cc3)ccc2C(=O)N2CCCC21` (stereo unspecified) here?
The Potency was inconclusive: 20 µM [inhibitor, partial curve, poor fit].

For `COc1ccc(S(=O)(=O)n2nc(C)c(S(=O)(=O)N3CCC(C)CC3)c2C)cc1OC`, which Potency is on record?
Its Potency is inconclusive: 22.4 µM [inhibitor, partial curve, poor fit].

For `COc1ccccc1NC(C)=[N+](C)CCNS(=O)(=O)c1ccc(Cl)cc1`, which Potency is on record?
The Potency was inconclusive: 11.2 µM [inhibitor, partial curve, poor fit].

How did the Potency turn out when `CCCOCCCNC(=O)c1c(C)noc1-c1ccc2c(c1)OCO2` was run?
The Potency was active: 28.2 µM.

How did the Potency turn out when `O=C(CCc1ccc(-c2ccc(Cl)cc2)[nH]1)N[C@@H]1C[C@@H]2OCC[C@@H]21` was run?
The Potency was active: 31.6 µM.

How did the Potency turn out when `COc1ccc(C2(C(=O)N3CCC(N4CC5CC(C4)[C@H]4CCCC(=O)N4C5)CC3)CC2)cc1` (stereo partly specified) was run?
The Potency was inconclusive: 17.8 µM [inhibitor, single point].

`O=C1COc2ccc(-c3ccc(F)cc3)nc2CN1Cc1ccccc1F` was tested. Which “activity change, negative = inhibition” value did it give?
Its value is inactive: 10.5% [at 86.2 µM].

With `O=C(Nc1cccc(C(F)(F)F)c1)c1cc(-c2ccc3c(c2)OCCO3)on1` as the compound, how does the Potency read?
The Potency was inconclusive: 31.6 µM [inhibitor, partial curve, poor fit].

For `Cn1cccc1C(=O)N1CC[C@H](NC(=O)NC2CCCCC2)[C@H]1C(=O)N1CCC[C@@H]1C(N)=O`, which “activity change, negative = inhibition” value is on record?
The value was inactive: -3.13%.

With `CCOC(=O)N1CCC(N[C@@H]2CC[C@@H]2NC(=O)c2cnc3cccnn23)CC1` as the compound, how does the Potency read?
The Potency was active: 31.6 µM.

For `CCOc1ncccc1-c1nc(-c2cccs2)no1`, which Potency is on record?
The Potency was inconclusive: 39.8 µM [inhibitor, single point].

How did the Potency turn out when `CCOC(=O)c1c(-c2ccc(OC)cc2)oc2ccc(OCc3ccc(Br)cc3)cc12` was run?
The Potency was inconclusive: 12.6 µM [inhibitor, partial curve, poor fit].
